# Results reported in PubChem BioAssay AID504332 (National Center for Advancing Translational Sciences (NCATS), 2011).
# Several values for one entry are separate records, joined by “and”; a condition that tells them apart may be missing. Equal entries are not always repeated. Hit rate of the full screen: of about 350,000 compounds, about 31,000 (8.9%) were called active. The shares of active, inactive and inconclusive entries below differ from those in the screen. Calls follow the shape of the dose curve; as a rule, active = well fitted inhibition curve with a large enough effect; inconclusive = small, poorly fitted or top-dose-only effect; inactive = no such curve, though single readings can be large or run the other way. Potencies beside an inconclusive call are fits to weak or partial responses and may not hold up.
# Biological target: Histone-lysine N-methyltransferase EHMT2 (Homo sapiens) (UniProt Q96KQ7)
# Chain of UniProt Q96KQ7 (Q96KQ7 whole entry, looked up): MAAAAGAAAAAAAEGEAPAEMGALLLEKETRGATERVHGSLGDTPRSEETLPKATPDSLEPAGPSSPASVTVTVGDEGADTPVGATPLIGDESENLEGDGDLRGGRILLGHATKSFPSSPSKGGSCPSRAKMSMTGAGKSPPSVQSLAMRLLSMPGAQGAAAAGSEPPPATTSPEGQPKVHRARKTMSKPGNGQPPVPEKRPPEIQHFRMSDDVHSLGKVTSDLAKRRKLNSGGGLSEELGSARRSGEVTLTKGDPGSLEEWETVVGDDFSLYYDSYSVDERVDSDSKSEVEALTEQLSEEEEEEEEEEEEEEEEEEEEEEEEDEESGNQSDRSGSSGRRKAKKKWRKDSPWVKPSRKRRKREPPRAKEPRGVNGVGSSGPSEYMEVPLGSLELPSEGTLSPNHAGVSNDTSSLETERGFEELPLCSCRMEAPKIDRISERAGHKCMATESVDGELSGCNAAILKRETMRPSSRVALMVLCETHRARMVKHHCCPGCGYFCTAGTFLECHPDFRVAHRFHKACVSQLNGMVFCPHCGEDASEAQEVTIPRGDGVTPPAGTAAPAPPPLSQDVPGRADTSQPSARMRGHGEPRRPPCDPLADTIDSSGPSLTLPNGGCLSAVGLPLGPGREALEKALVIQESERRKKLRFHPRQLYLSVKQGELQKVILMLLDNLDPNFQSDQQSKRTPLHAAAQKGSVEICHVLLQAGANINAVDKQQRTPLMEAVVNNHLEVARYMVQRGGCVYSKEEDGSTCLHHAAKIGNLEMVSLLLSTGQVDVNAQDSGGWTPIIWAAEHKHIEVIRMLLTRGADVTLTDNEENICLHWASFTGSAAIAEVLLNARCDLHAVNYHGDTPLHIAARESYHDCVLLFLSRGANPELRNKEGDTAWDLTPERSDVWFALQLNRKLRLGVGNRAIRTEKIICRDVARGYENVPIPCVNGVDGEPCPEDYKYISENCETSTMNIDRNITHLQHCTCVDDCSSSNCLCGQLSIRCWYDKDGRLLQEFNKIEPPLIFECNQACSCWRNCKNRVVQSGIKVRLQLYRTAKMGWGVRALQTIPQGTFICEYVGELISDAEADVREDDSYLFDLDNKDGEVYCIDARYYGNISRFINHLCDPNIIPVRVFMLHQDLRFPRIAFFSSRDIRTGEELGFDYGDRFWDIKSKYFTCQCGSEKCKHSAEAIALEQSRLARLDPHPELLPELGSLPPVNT
# Assay: qHTS Assay for Inhibitors of Histone Lysine Methyltransferase G9a; also: nearly all actives have a fitted effect of over 75% in size
# Settings: G9a H3K9 monomethylation, AlphaScreen, 2 h; activity, negative = inhibition: at 59 µM (top of the series) unless noted
# Procedure, shortened: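 G9a (20 nM) was preincubated 15 min with compound, then reacted 2 h at room temperature with 500 nM biotin-H3K9 peptide and 20 µM SAM. Monomethyl-H3K9 detected by AlphaScreen using anti-H3K9me1 antibody.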
# % is scaled to controls: 0 for no effect and ±100 for the full control effect; potency is read from the fitted curve at half-maximal effect; tags tell the direction and shape of the fitted curve.
Compound,Potency,"activity, negative = inhibition"
Cc1c(C=C2C(=O)N(C)C(=O)N(C)C2=O)c(=O)n(-c2ccccc2)n1C,inactive,–
COc1ccc(CCn2c(O)c(C=NCCCn3ccnc3)c(=O)[nH]c2=O)cc1OC,inactive,–
O=C1NC(=O)N(c2ccccc2)C(=O)/C1=C/c1ccoc1,active: 39.8 µM,–
CC(C(=O)c1c[nH]c2ccccc12)N1CCc2ccccc2C1 (configuration not stated),"inconclusive: 28.2 µM [inhibitor, single point]",–
CCOc1ccc(CN(CCc2ccc3c(c2)OCO3)Cc2ccc(OC)c(Br)c2)cc1,"inconclusive: 0.891 µM [inhibitor, full curve, poor fit]",–
C=CCn1c(O)c(C(C)=Nc2ccc(N(C)C)cc2)c(=O)[nH]c1=O,"inconclusive: 2.51 µM [inhibitor, partial curve, poor fit]",–
Cc1oc(-c2ccccc2)nc1CN1C(=O)CN=C(c2ccccc2)c2ccccc21,"inconclusive: 50.1 µM [inhibitor, partial curve]",–
O=C(CSC1c2ccccc2-c2ccccc21)N/N=C/c1ccccc1,inactive,–
O=C1CN=C(c2ccc(Br)cc2)c2c(sc3c2CCCC3)N1CCN1CCCCC1,"inconclusive: 79.4 µM [inhibitor, single point]",–
CN(C)CCOc1ccc(/C(=C(/CCCl)c2ccccc2)c2ccccc2)cc1,"inconclusive: 14.1 µM [inhibitor, partial curve]",–
CC(=O)C1=C(C)OC(N)=C(C(=O)OC(C)C)C12C(=O)Nc1ccccc12 (configuration not stated),"inconclusive: 39.8 µM [inhibitor, single point]",–
CCOc1ccc2nc(NC(=O)c3cccn(Cc4ccccc4Cl)c3=O)sc2c1,inactive,–
CC1=C/C(=N\NC(=S)NCCc2ccccc2)CC(C)(C)C1,active: 39.8 µM,–
CC(C)=CCC[C@]1(C)[C@@H](CC=C(C)C)C[C@@]2(CC=C(C)C)C(=O)[C@]1(C(=O)C(C)C)C(=O)C(CC=C(C)C)=C2O,"inconclusive: 17.8 µM [inhibitor, single point]",–
CCc1ccc(N2C(=O)NC(=O)C(CCc3ccncc3)(CCc3ccncc3)C2=O)cc1,"inconclusive: 3.98 µM [inhibitor, single point]",–
NC(=O)c1cn(C2OC(CO)C(O)C2O)c2ncnc(N)c12 (configuration not stated),"inconclusive: 70.8 µM [inhibitor, partial curve, poor fit]",–
Cc1oc(-c2cccs2)nc1CSCC(=O)N1CCC2(CC1)OCCO2,"inconclusive: 50.1 µM [inhibitor, partial curve]",–
Cc1ccccc1NC(=O)c1c(NC(=O)c2ccccc2F)sc2c1CCC(C)C2 (configuration not stated),"inconclusive: 7.08 µM [inhibitor, single point]",–
O=C(CCl)NN=C(c1ccccc1)c1ccccc1,"inconclusive: 39.8 µM [inhibitor, partial curve, poor fit]",–
COc1ccc2c3c1OC1C(O)C=CC4C(C2)[N+](C)(C)CCC341 (configuration not stated),active: 7.94 µM,–
Cc1c(NP(=O)(C(C)(C)C)C(C)(C)C)c(=O)n(-c2ccccc2)n1C,inactive,–
O=C1NC(=O)C(=Cc2cccc(OCCOc3ccccc3)c2)C(=O)N1,active: 35.5 µM,–
COC(=O)C1=C(c2ccc(OC)c(OC)c2)C[C@@H]2CC[C@H]1N2C(=O)NCCCOC(C)C,–,inactive: 20% [at 2.33 µM]
CC/C(=N\N1CCCCCC1)c1c(O)n(-c2ccccc2C)c(=O)[nH]c1=O,"inconclusive: 39.8 µM [inhibitor, single point]",–

Compound,Potency,"activity, negative = inhibition"
Fc1ccc(C(OCCN2CCCC2)c2ccc(Br)cc2)cc1 (configuration not stated),inactive,–
CC1CN(CC(=O)c2ccccc2Cl)CC(C)O1 (configuration not stated),"inconclusive: 0.355 µM [inhibitor, partial curve, poor fit]",–
[N-]=[N+]=CC(=O)OC[C@H](N)C(=O)O,inactive,–
CCN(CC)CCNCC(=O)Nc1ccc(Cl)cc1C(=O)c1ccccc1,"inconclusive: 2.82 µM [inhibitor, full curve, poor fit]",–
COc1ccc2[nH]c3c(c2c1)CCN[C@H]3C,"inconclusive: 89.1 µM [inhibitor, single point]",–
CC(C)(C)c1ccc(CN2C(=O)CN=C(c3ccccc3)c3ccccc32)cc1,–,inconclusive: -51.1% [inhibitor] [at 0.0925 µM]
CCCCC/C=C\C[C@@H](/C=C/C=C\C/C=C\CCCC(=O)O)OO,inactive,–
Cn1c(=O)oc2cc(S(=O)(=O)N3CCCc4ccccc43)ccc21,"inconclusive: 89.1 µM [inhibitor, single point]",–
CCN1C(=O)NC(=O)/C(=C\c2cn(CC(=O)N3CCCC3)c3ccccc23)C1=O,inactive,–
COc1ccc(/C=C/C2=CCN(C)CC2)cc1,active: 79.4 µM,–
COc1cccc(C2C([N+](=O)[O-])=C(N)Oc3c2c(=O)oc2ccccc32)c1 (configuration not stated),"inconclusive: 31.6 µM [inhibitor, single point]",–
O=C(CN1CCCCC1)c1cccc(Br)c1,active: 8.91 µM,–
O=c1c2ccccc2nc(/C=C/c2ccccc2)n1-c1ccc(O)cc1,inactive,–
CCN(CC)c1ccc(/C=C/[N+](=O)[O-])cc1,active: 44.7 µM,–
COc1ccc2c3c([nH]c2c1)C(C)=NCC3,"inconclusive: 7.94 µM [inhibitor, single point] and inconclusive: 89.1 µM [inhibitor, single point]",–
COC(=O)C1C=C2c3cccc4[nH]cc(c34)CC2N(C)C1 (configuration not stated),–,inconclusive: -82.1% [inhibitor]
CCCCC(CC)CNCC(O)c1ccccc1 (configuration not stated),active: 25.1 µM,–
Cc1cccc(N2C(=O)CC(=O)NC2=O)c1,"inconclusive: 0.708 µM [inhibitor, partial curve, poor fit]",–
O=C(N[C@H]1CP(=O)(Oc2ccccc2)O[C@H](COCc2ccccc2)[C@H]1O)C(Cl)(Cl)Cl (some centres not stated),–,inactive: 26% [at 12.7 µM]
C=CCN(CC=C)C(=O)Nc1ccc(OCC)cc1,inactive,–
CC12CCC3C(CCC4C/C(=N/O)CCC43C)C1CCC2O (configuration not stated),inactive,–
Clc1cc(I)cc(Cl)c1NC1=NCCN1,"inconclusive: 70.8 µM [inhibitor, single point]",–
COc1ccc(NP(=O)(Nc2ccc(OC)cc2)Oc2ccccc2)cc1,inactive,–
Cc1c(N=Nc2c(O)n(Cc3ccccc3)c(=O)[nH]c2=O)c(=O)n(-c2ccccc2)n1C,"inconclusive: 0.562 µM [inhibitor, full curve, poor fit]",–

Compound,Potency,"activity, negative = inhibition"
CCOC(=O)c1c(C)c(C(=O)N2CCC3(CC2)OCCO3)c(C)n1CC,"inconclusive: 70.8 µM [inhibitor, partial curve, poor fit]",–
Cc1ccc(N2C(=O)NC(=O)/C(=C\c3cc(C)n(-c4cc(C(=O)O)cc(C(=O)O)c4)c3C)C2=O)cc1,active: 35.5 µM,–
CN1CCN(C(=O)COc2ccc(-c3nc4ccccc4s3)cc2)CC1,inactive,–
CC(C)Oc1ccc(Cc2c(O)[nH]c(=O)[nH]c2=O)cc1,inactive,–
CCOC(=O)c1c(/N=C/c2c(O)n(-c3ccc(F)cc3)c(=S)[nH]c2=O)sc2c1CCCC2,"inconclusive: 22.4 µM [inhibitor, single point]",–
COc1ccc(O)c(C(C)(C)C)c1,"inconclusive: 15.8 µM [inhibitor, full curve]",–
NC(Cc1nc2ccccc2[nH]1)c1ccc(Cl)cc1 (configuration not stated),active: 39.8 µM,–
Cc1ccc(-c2nc3ccccc3c(=O)n2-c2ccc(O)cc2)cc1,"inconclusive: 44.7 µM [inhibitor, partial curve]",–
CCOC(=O)c1ccc2c(c1)N(C)C(=O)c1ccccc1S2,"inconclusive: 89.1 µM [inhibitor, single point]",–
CCCCCCCCc1[se]c2ccccc2c1[Se]c1ccccc1,inactive,–
CCNC[C@H](O)c1cccc(O)c1,inactive,–
Cc1[nH]c2ccccc2c1C(=O)CN1CC=C(c2ccccc2)CC1,"inconclusive: 89.1 µM [inhibitor, single point]",–
COc1ccc(CN2CCc3nc(N4CCN(c5ccc(F)cc5)CC4)ncc3C2)c(OC)c1OC,"inconclusive: 15.8 µM [inhibitor, partial curve, poor fit]",–
CC(C)NC(C)C(=O)c1ccc2ccccc2c1 (configuration not stated),"inconclusive: 35.5 µM [inhibitor, single point]",–
O=C(COc1ccc(Br)cc1)N1CCN(Cc2ccncc2)CC1,active: 17.8 µM,–
Cc1oc(-c2ccc(F)cc2F)nc1CN1C[C@@H]2C[C@@H](C1)c1cccc(=O)n1C2,"inconclusive: 11.2 µM [inhibitor, partial curve]",–
Cc1ccc2c(c1)CC1(CN2C)C(=O)NC(=O)N(c2ccc(C)c(C)c2)C1=O (configuration not stated),active: 8.91 µM,–
C=CCc1cc(OC)c2c(c1)OCO2,–,inactive: 4.21% [at 12.7 µM]
Cc1c(N=Cc2c(O)n(Cc3ccco3)c(=O)[nH]c2=O)c(=O)n(-c2ccccc2)n1C,–,inconclusive: -55.8% [inhibitor]
CCCCCCOc1ccc(C(=O)n2cnc(N)n2)cc1,"inconclusive: 1.58 µM [inhibitor, full curve, poor fit]",–
Cn1c[n+](C)cc1C(O)c1ccccc1 (configuration not stated),"inconclusive: 8.91 µM [inhibitor, single point] and inconclusive: 8.91 µM [inhibitor, partial curve, poor fit]",–
CC(C)N1C(=S)SC(C)(C)C1n1oc(=O)n(-c2cccc(Cl)c2)c1=O (configuration not stated),"inconclusive: 79.4 µM [inhibitor, partial curve, poor fit]",–
c1cncc(C2=NCCC2)c1,inactive,–
COc1cccc(N2C(=O)NC(=O)/C(=C/c3ccc([N+](=O)[O-])s3)C2=O)c1,active: 11.2 µM,–
